# PMC12040169 (PLOS Biology, 2025)
# Some of the results follow.
# Test system: T1, C. trachomatis L2/434/Bu expressing GFP (CTL2-GFP)
# T1 construct: L2/434/Bu GFP intracellular growth in HeLa cells
# Design: species or system HeLa; C. trachomatis total inclusion area by high-content imaging, normalised to DMSO
# Conditions: total inclusion area; 28.5 h, 10 µM; inhibitor
# Outline: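 Imaging read-out: GFP inclusions and Hoechst nuclei captured by high-content imaging after fixation. Inclusion area/number = chlamydial growth; nuclei count = host cell viability. MIC calculated per earlier method.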
row,Compound,% of control remaining
1,COc1ccccc1C(C)CN(C)C (stereo not shown) [CBK011948C],125.675
2,CCn1c(COc2ccc(C(=O)O)cc2)nc2ccccc21 [CBK267647],106.424
3,O=C1CC2(CCCC2)C(=O)N1CCNc1nccc(C(F)(F)F)n1 [CBK028777],82.0407
4,CCOC(=O)C1CSCCN1C(=O)c1ccc(-c2cnco2)cc1 (stereo not shown) [CBK304208],54.4014
5,CCCOc1ccc(C(=O)NCc2ccccn2)cc1 [CBK269789],94.37
6,CCc1cc(CNC(=O)C(c2ccc(F)cc2)N(C)C)on1 (stereo not shown) [CBK281648],110.962
7,CC(=O)CCc1cc(CCC(N)=O)on1 [CBK023350],122.809
8,CCCn1c(-c2ccccc2OC(F)(F)F)n[nH]c1=O [CBK074238],104.985
9,NC(=O)CCNC(=O)C1(c2ccccc2)CCCC1 [CBK160929],109.47
10,CC(C)c1ccc(/C=C2\CCCc3c2nc2ccccc2c3C(=O)O)cc1 [CBK299777],74.8784
11,O=C(NCc1ccc(OC2CCNCC2)cc1)c1ccccn1 [CBK036361T],113.566
12,CSc1ncc(CNCc2ccc3c(c2)OCO3)c(N)n1 [CBK074563],79.5547
13,CCn1ncc(CN[C@@H]2CCC(=O)N[C@H]2c2cc(F)cc(F)c2)c1C [CBK282914],114.447
14,CN(C)CC(C)(C)CNC(=O)c1cnc2cc(Cl)ccc2c1O [CBK107357],100.31
15,CCOC(=O)c1c(NC(=O)CCN2C(=O)c3cccc4cccc(c34)C2=O)sc2c1CCC2 [CBK262982],90.8173
16,Cc1ccccc1/N=C1/NC(=O)/C(=C/c2ccc([N+](=O)[O-])o2)S1 [CBK094584],111.193
17,O=C(O)c1ccc(-n2nnnc2SCc2ccc(F)cc2)cc1 [CBK287229],94.9549
18,CCc1c(C(=O)Nc2ccc(C(F)(F)F)cc2)cnc2ncnn12 [CBK291244],115.524
19,Cc1nonc1NC(=O)CSc1nc2cc(Cl)ccc2[nH]1 [CBK270095],108.175
20,COc1cccc(CN(C)CCN(C)C)c1O [CBK261905],98.4118
21,Cc1ccc(-c2cc(C(=O)Nc3ccc(S(=O)(=O)Nc4nccs4)cc3)c3ccccc3n2)c(C)c1 [CBK262638],86.1695
22,COCCN(C(=O)c1ccc2ccccc2c1)C1CCS(=O)(=O)C1 (stereo not shown) [CBK305758],38.3146
23,CCOc1ccccc1NC(=O)Nc1ncccc1C [CBK267140],125.542
24,c1coc(CNc2c(-c3ccco3)nc3cnccn23)c1 [CBK283496],103.635
25,CC[C@H]1CN(C(=O)c2ccnc(Cl)c2)CC[C@H]1CC(=O)NCc1ccc2c(c1)OCO2 [CBK289137],91.4076
26,COc1ccc(C(=O)/C=C/c2cccs2)c(OC(=O)c2ccc([N+](=O)[O-])cc2)c1 [CBK264926],107.607

row,Compound,% of control remaining
1,CC(=O)NCCSc1cc(C(F)(F)F)ccn1 [CBK105297],87.872
2,COc1ccc(OC)c(-n2nnnc2SCC2CCCN(C)C2)c1 (stereo not shown) [CBK305386],87.2557
3,Cc1ccc(SCC(=O)Nc2ccc(O)cc2C(=O)O)cc1 [CBK131703],99.8294
4,O=C(O)c1cccc(S(=O)(=O)Nc2nc3ccc(Cl)cc3s2)c1 [CBK299793],105.669
5,c1coc(CNc2c(-c3cccs3)nc3cnccn23)c1 [CBK283540],100.596
6,CC(C)NC(=O)C1CC2CCC1(C)C[C@]21NC(=O)c2ccccc2N1 (stereo partly shown) [CBK284444],114.243
7,CCn1c(SCC(=O)N/N=C/C(C)=C/c2ccccc2)nc2ccccc21 [CBK263178],71.1166
8,COc1ccc(Nc2nnc(-c3ccc(C(=O)NCCO)cc3)c3ccccc23)cc1 [CBK263735],116.116
9,O=C(Nc1ccccc1C(F)(F)F)N(Cc1ccccc1C(F)(F)F)CC1CCNCC1 [CBK049744],87.7591
10,CC(C(=O)NCCc1cn(C)c2ccc(Cl)cc12)N1CCOCC1 (stereo not shown) [CBK282263],93.3982
11,COc1ccc(Cn2nc(N)c3ccccc32)cc1 [CBK093530],97.6364
12,Cc1cc2c(o1)c1cnn(CC(=O)N(C)C)c(=O)c1n2C(C)C [CBK284233],79.6418
13,Cc1nc2ccc(C(=O)NCCCN3CC(C)CC(C)C3)cc2[nH]1 (stereo not shown) [CBK283298],103.558
14,c1ccc2[nH]c(CN3CCC[C@@H]3CN3CCCC3)nc2c1 [CBK149102],97.256
15,CCN1CCN(C(=O)CN(C)S(=O)(=O)c2ccc(OC)c(Cl)c2)CC1 [CBK268091],89.0445
16,Cc1cc(NC(=O)C(C)N2CCN(S(=O)(=O)c3ccc(C4CCCCC4)cc3)CC2)on1 (stereo not shown) [CBK295639],66.0829
17,O=C(O)CCCCCN1C(=O)/C(=C/c2ccc(O)cc2)SC1=S [CBK262835],76.4271
18,CCCCOc1ccc(OC(=O)COCCOCCN2C(=O)c3ccccc3C2=O)cc1 [CBK155584],89.2154
19,CCn1c(C)nc2cc(NC(=O)c3c4c(nn3C)CCCC4)ccc21 [CBK281831],99.0161
20,CCOc1ccc(/C=C2/NC(=O)NC2=O)cc1Br [CBK098031],106.726
21,O=C(OCCN1CCOCC1)N1CCN(c2ccccc2)CC1 [CBK200242],133.323
22,COc1ccc(-c2noc(CN(C(=O)Cc3ccc(C)cc3)C(C)C)n2)cc1 [CBK269774],79.4094
23,O=C(c1c(-c2ccccc2)nnc2ccccc12)N1CCN(CCO)CC1 [CBK066882],95.5788
24,c1nc(NCCCN2CCOCC2)c2c3c(sc2n1)CCCCC3 [CBK268236],129.706
25,CN1CCC(N2CCN(C(=O)NC3CCc4ccccc43)CC2)CC1 (stereo not shown) [CBK156110],110.845
26,O=C(N[C@H]1CCN(Cc2ccccc2)C1)c1cnc(-c2ccccc2)c(-c2ccncc2)c1 [CBK036639],106.17
